According to PMC4336329 (PLoS ONE, 2015):
Among all 310,000 compounds or so, about 2,200 (0.71%) showed an effect of 50% or more. Effects have a minus sign here. The list shows a part of the results.

Molecular target: human ether-à-go-go-related gene (hERG) potassium channel (human, UniProt Q12809)
Assay: primary screen, population patch clamp on CHO cells stably expressing hERG

human ether-à-go-go-related gene (hERG) potassium channel, sequence (Q12809 whole entry, looked up): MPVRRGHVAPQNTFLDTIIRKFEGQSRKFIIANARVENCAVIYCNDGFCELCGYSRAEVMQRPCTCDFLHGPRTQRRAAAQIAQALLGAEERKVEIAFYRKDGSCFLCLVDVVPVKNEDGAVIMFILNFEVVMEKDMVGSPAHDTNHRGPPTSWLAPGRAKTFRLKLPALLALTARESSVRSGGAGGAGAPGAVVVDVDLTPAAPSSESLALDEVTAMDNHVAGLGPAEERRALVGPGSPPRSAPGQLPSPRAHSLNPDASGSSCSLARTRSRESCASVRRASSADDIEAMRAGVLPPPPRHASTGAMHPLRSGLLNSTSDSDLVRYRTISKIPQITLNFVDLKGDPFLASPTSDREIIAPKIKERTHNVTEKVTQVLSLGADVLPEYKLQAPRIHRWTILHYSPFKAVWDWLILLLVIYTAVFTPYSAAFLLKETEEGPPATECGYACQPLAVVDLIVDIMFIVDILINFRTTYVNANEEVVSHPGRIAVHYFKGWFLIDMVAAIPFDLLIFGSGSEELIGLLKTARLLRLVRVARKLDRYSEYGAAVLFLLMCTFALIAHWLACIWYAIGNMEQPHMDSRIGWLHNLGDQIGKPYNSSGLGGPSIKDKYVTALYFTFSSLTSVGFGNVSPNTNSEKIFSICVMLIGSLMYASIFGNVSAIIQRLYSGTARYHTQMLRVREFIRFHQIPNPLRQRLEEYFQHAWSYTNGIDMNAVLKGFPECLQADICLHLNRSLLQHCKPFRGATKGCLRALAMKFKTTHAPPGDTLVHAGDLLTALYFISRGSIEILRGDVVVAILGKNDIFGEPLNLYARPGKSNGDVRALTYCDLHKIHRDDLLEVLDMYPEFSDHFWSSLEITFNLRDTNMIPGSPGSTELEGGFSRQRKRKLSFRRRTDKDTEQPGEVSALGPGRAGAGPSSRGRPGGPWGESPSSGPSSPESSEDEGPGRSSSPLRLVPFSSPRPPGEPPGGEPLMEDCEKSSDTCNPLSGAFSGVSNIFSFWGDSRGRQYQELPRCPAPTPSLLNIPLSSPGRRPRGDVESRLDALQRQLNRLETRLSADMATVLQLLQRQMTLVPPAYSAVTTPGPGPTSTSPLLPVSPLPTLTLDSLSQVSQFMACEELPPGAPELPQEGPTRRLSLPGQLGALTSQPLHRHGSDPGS

First: CCOC(=O)N1CCN(S(=O)(=O)c2ccc(C)c([N+](=O)[O-])c2)CC1
Second: CCOC(=O)N1CCN(Cc2nc3cc(NC(C)=O)ccc3n2CC)CC1
The “hERG current change (%, negative = inhibition) at 1uM” value of the first is lower: 11.9% for the first, 13.4% for the second.

Going from Cc1nn2c(Nc3ccccc3)c3c(nc2c1-c1ccccc1)CCC3 to COc1cnc(-c2ccccc2)nc1Oc1cccc(C)c1, the “hERG current change (%, negative = inhibition) at 1uM” value falls from 3.9% to 0.018%.

First: CCOC(=O)c1c(C)oc2ccc(OCC(=O)C(C)(C)C)cc12
Second: C=CCOC(=O)C1=C(C)NC(SC)=C(C#N)C1c1ccc(OCC)cc1 (centres unmarked)
The “hERG current change (%, negative = inhibition) at 1uM” value of the first is higher: 16.8% for the first, 9.22% for the second.

Compared with O=C(NC(=S)Nc1nc(-c2ccc(Br)cc2)cs1)c1ccco1, COC(=O)c1ccc(NCCc2csc(-c3ccc(C)cc3)n2)c([N+](=O)[O-])c1 is lower in “hERG current change (%, negative = inhibition) at 1uM” value: 17.7% for the first, 5.9% for the second.

First: COc1cc(/C=C2\C(=O)NN(c3ccccc3)C2=O)cc([N+](=O)[O-])c1O
Second: COc1ccc(OC)c(NC(=S)Nc2ccccc2)c1
The “hERG current change (%, negative = inhibition) at 1uM” value of the first is lower: 9.39% for the first, 14.1% for the second.

First: CCCOc1cc(C)c(S(=O)(=O)N2CCOCC2)cc1C
Second: CC(C)Cn1c(SCC(=O)NCc2ccc(Cl)cc2)nnc1-c1cccc(S(=O)(=O)N2CCOCC2)c1
The “hERG current change (%, negative = inhibition) at 1uM” value of the first is higher: 13.1% for the first, -12.9% for the second.

Going from CC1CN(c2ncnc3c2c(-c2ccccc2)cn3-c2ccc(F)cc2)CC(C)O1 (centres unmarked) to O=C(NCc1ccc(F)cc1)c1cc2ccccc2o1, the “hERG current change (%, negative = inhibition) at 1uM” value rises from 6.97% to 18.1%.

First: CN(C(=O)COC(=O)CNC(=O)c1cccs1)c1c(N)n(Cc2ccccc2)c(=O)[nH]c1=O
Second: O=C(NC(Cc1c[nH]c2ccccc12)C(=O)N/N=C/c1cccnc1)c1cccs1 (centres unmarked)
The “hERG current change (%, negative = inhibition) at 1uM” value of the first is higher: 6.15% for the first, -0.0775% for the second.

Going from CCOc1ccccc1Nc1nc(N2CCCC2)nc(N2CCOCC2)n1 to Cc1cccc(-c2nsc(SCC(=O)N3CCCC3)n2)c1, the “hERG current change (%, negative = inhibition) at 1uM” value falls from 17.2% to 9.55%.

First: COc1ccc(CCNC(=O)c2cc(-c3ccc(C)c(C)c3O)n[nH]2)cc1OC
Second: COc1cccc(CN(C)CC(=O)Nc2cc3oc4ccccc4c3cc2OC)c1
The “hERG current change (%, negative = inhibition) at 1uM” value of the first is higher: 14.9% for the first, 1.23% for the second.

Compared with CCn1nnc(NC(=O)COc2ccc([N+](=O)[O-])cc2)n1, CN1CCN(NC(=O)Nc2ccc([N+](=O)[O-])cc2)CC1 is lower in “hERG current change (%, negative = inhibition) at 1uM” value: 11.1% for the first, 8.13% for the second.

Going from COC(=O)c1cc2ccsc2n1CC(=O)Nc1cc(Cl)ccc1OC to COc1ccccc1NC(=O)c1cc2c(CO)cnc(C)c2oc1=Nc1cccc(C(N)=O)c1, the “hERG current change (%, negative = inhibition) at 1uM” value rises from 8.46% to 22.4%.

Compared with CCOC(=O)[C@@H]1[C@H]2COc3ccccc3[C@H]2N2C(=O)N(c3ccccc3)C(=O)[C@]12C, CCN(CC(=O)Nc1cccc(S(=O)(=O)N(C)c2ccccc2)c1)Cc1ccccc1 is lower in “hERG current change (%, negative = inhibition) at 1uM” value: 9.44% for the first, 4% for the second.

Compared with CCC(C)(c1nnnn1-c1c(C)cccc1C)N(N=O)c1ccccc1Cl (centres unmarked), CC(C)c1cccc(C(C)C)c1NC(=O)CNCc1ccccc1F.O=C(O)C(=O)O is lower in “hERG current change (%, negative = inhibition) at 1uM” value: 6.35% for the first, -9.14% for the second.

Compared with CC(=O)c1c(C)[nH]c(C(=O)N2CCCC(C)C2)c1C (centres unmarked), Cc1ccc(C(=O)N2CCCC(Nc3ccc(F)cc3)C2)cc1C (centres unmarked) is lower in “hERG current change (%, negative = inhibition) at 1uM” value: 12% for the first, -0.167% for the second.

Going from O=C(CCc1nc2ccccc2c(=O)[nH]1)Nc1nnc(SCc2ccc(F)cc2)s1 to COc1ccc(CSCC(=O)N/N=C/c2ccccc2O)cc1, the “hERG current change (%, negative = inhibition) at 1uM” value falls from 12.3% to 7.14%.

First: CSc1ccc(Cl)c(C(=O)N(C)CC(=O)Nc2ccc(N3CCOCC3)cc2)c1
Second: CN(C)c1ccc(NC(=O)c2ccc(Cn3cc([N+](=O)[O-])cn3)cc2)cc1
The “hERG current change (%, negative = inhibition) at 1uM” value of the first is higher: 12.6% for the first, 5.16% for the second.

First: CC(CNC1CCCCC1)OC(=O)c1ccccc1.Cl (centres unmarked)
Second: O=C(COc1cccc(Oc2ccccc2)c1)Nc1ccc(SC(F)F)cc1
The “hERG current change (%, negative = inhibition) at 1uM” value of the first is lower: -3.23% for the first, 11.7% for the second.

Compared with CC(OC(=O)CNS(=O)(=O)c1ccc(C#N)cc1)C(=O)Nc1cccc(C#N)c1 (centres unmarked), Cc1ccc(-n2c(C)cc(/C=N/NC(=O)c3ccncc3)c2C)cc1C is higher in “hERG current change (%, negative = inhibition) at 1uM” value: -2.9% for the first, 8.17% for the second.

Compared with NNC(=O)c1csc(-c2ccc(C(F)(F)F)cc2Cl)n1, O=C(Nc1cnn(Cc2ccc(F)cc2)c1)c1cnccn1 is lower in “hERG current change (%, negative = inhibition) at 1uM” value: 9.45% for the first, 8.36% for the second.

Going from Nn1c(SCC(=O)Nc2ccc(F)cc2F)nnc1-c1cccnc1 to Oc1ccc2ccccc2c1CNc1ccc(Br)cn1, the “hERG current change (%, negative = inhibition) at 1uM” value falls from 20.7% to 12.7%.

Going from O=C(c1ccco1)N1CCN(C(=O)c2cc(Cl)nc3ccccc23)CC1 to CCCCN1C(=O)Nc2ccccc2S1(=O)=O, the “hERG current change (%, negative = inhibition) at 1uM” value falls from -8.33% to -11.6%.
